Key:
VEGF165 [1] = biological target: T1, VEGF165 (Homo sapiens, UniProt P15692); assay: Biacore T100 SPR, Protein A capture, 37° C.; type: binding; parameters: made in house; host or cells: HEK293 (transient transfection)
T1 sequence (P15692 27-191 isoform P15692-4): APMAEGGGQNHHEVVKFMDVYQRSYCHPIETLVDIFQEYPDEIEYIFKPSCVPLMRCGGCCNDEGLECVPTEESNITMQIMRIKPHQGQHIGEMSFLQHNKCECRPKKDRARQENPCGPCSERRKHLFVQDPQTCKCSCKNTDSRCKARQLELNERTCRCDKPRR
Description: (§1) The run was carried out at 37° C., using HBS-EP as the running buffer.
as §1, §1, §1, §1

[2] = system: VEGF165-induced proliferation of human umbilical vein endothelial cells (HUVEC); assay: Human Umbilical Cord Endothelial Cell (HUVEC) proliferation assay; type: cell-based; conditions: for EC50 compared to Bevacizumab (Avastin): Example 27, whole 96 well plate, words only
VEGF165 [3] = biological target: T1, VEGF165; assay: Isothermal titration calorimetry (ITC); conditions: 25° C.; 1:1 binding model; Table 10
[4] = biological target: T2, binding of VEGF165 to VEGF R2 (Homo sapiens, UniProt P15692); assay: VEGF R2 receptor binding assay (MSD RBA)
T2 construct: host or cells: insect cells, baculovirus (VEGF)
T2 sequence (P15692 27-191 isoform P15692-4): T1 sequence (P15692 27-191 isoform P15692-4)

VEGF165 [5] = biological target: T1, VEGF165; assay: Modified MSD assay: binding to VEGF pre-saturated with the other dAb format; parameters: made in house; host or cells: HEK293 (transient transfection); conditions: DMS1576 ≧3 μg/mL; anti-Vk detection; FIG. 2B
Description: A MSD high bind 96 well plate (MSD L11X6-3) was coated with 3 μg/mL rhVEG F165 (sourced ‘in house’ from transient transfection of HEK293 cells) in PBS (25 μl/well), covered with a plate sealer and incubated overnight at 4° C. The next day the MSD plate was washed 3×300 μl/well with Tris wash buffer and blotted over a pad of tissue to remove excess wash buffer from the wells. The MSD plate was then blocked with 3% BSA in PBS (250 μl/well) and incubated shaking (750 RPM) at room temperature for 1 hour. […] The MSD plate was washed again before the addition of DMS1576 (25 μl/well, 0-100 ng/ml) and incubated shaking (750 RPM) at room temperature for 1 hour. […] Prior to measurement of the electrochemiluminescence in a MSD Sector Imager 6000, the MSD plate was washed and 150 μL/well of 2× Read Buffer T (MSD R92TC-1) was added.
The next day the MSD plate was washed 3×300 μl/well with Tris wash buffer and blotted over a pad of tissue to remove excess wash buffer from the wells. […] Prior to measurement of the electrochemiluminescence in a MSD Sector Imager 6000, the MSD plate was washed and 150 μL/well of 2× Read Buffer T (MSD R92TC-1) was added.

[6] = Table 12A, VEGF165 32 nM to 0.03125 nM
[7] = Table 11A, VEGF165 16 nM to […]
[8] = Table 11B, VEGF165 128 nM to 0.03125 nM
[9] = Table 11C, VEGF165 128 nM to 0.03125 nM
[10] = Table 5, 1:1 model, VEGF165 64 nM to […]
[11] = Table 7, 1:1 Binding, VEGF165 75, 15, 3, 0.6 nM

B1: DMS30023: DT02-K-044-085-HingeIgG1Linker-Fc-GS(TVAAPSGS)x3 Linker-DT02-K-044-085 dAb-Fc-dAb; SEQ ID NO:26 & 54 (protein)
chain: DIQMTQSPSSLSASVGDRVTITCRASQWIGPELKWYQQKPGKAPKLLIYHGSILQSGVPSRFSGSGSGTDFTLTISSLQPEDFATYYCQQYMYYPHTFGQGTKVEIKRV[human IgG1 Fc with changes not shown]GSTVAAPSGSTVAAPSGSTVAAPSGSDIQMTQSPSSLSASVGDRVTITCRASQWIGPELKWYQQKPGKAPKLLIYHGSILQSGVPSRFSGSGSGTDFTLTISSLQPEDFATYYCQQYMYYPHTFGQGTKVEIKR
modifications: DT02-K-044-085-HingeIgG1Linker-Fc-GS(TVAAPSGS)x3 Linker-DT02-K-044-085 Vh-Vk dAb-Fc-dAb nucleic acid sequence identified using molecular biology techniques.
Ka (VEGF165 [1]; [6]): 1.33e+07 M⁻¹ s⁻¹ | Kd (s − 1) (VEGF165 [1]; [6]): 9.13e-05 s⁻¹ | EC50 compared to Bevacizumab (Avastin) [2]: improved | Predicted Means for Max % Inhibition, Estimate ([2]; Table 14A, weighted mixed model analysis): 69.7258% | IC50 ([2]; Table 14B, back transformed from log 10 scale, read-out: Geometric means of IC50, Estimate): 598 pM | KA M^−1 (VEGF165 [3]): 3.78e+07 M⁻¹ | EC50 ([4]; Table 8B, second data set (VEGFR2 RBA)): 5.2 ng/mL | EC50 ([4]; Table 13A, no pre-incubation): 3.23 ng/mL

B2: N085 Fibrx4: N-terminal Fc fusion of K-044-085 dAb ((TGLDSP)x4); SEQ ID NO:166 (protein)
chain: DIQMTQSPSSLSASVGDRVTITCRASQWIGPELKWYQQKPGKAPKLLIYHGSILQSGVPSRFSGSGSGTDFTLTISSLQPEDFATYYCQQYMYYPHTFGQGTKVEIKRTGLDSPTGLDSPTGLDSPTGLD[human IgG1 Fc and a few adjoining residues not shown]
modifications: N-terminal Fc fusion of K-044-085 DAB ((TGLDSP)x4) amino acid sequence identified using molecular biology techniques.
Ka (M − 1 · s − 1) (VEGF165 [1]; [7]): 6.76E+06 M − 1 · s − 1 | Kd (s − 1) (VEGF165 [1]; [7]): 4.83E−05 s − 1

B3: DMS30028: Vk dAb-Fc: DT02-K-085 dAb attached to N-terminus of IgG1 Fc by IgG1 Hinge linker; SEQ ID NO:164 (protein)
chain: DIQMTQSPSSLSASVGDRVTITCRASQWIGPELKWYQQKPGKAPKLLIYHGSILQSGVPSRFSGSGSGTDFTLTISSLQPEDFATYYCQQYMYYPHTFGQGTKVEIKRV[human IgG1 Fc with changes not shown]
modifications: N-terminal Fc fusion of K-044-085 DAB (IgG1 Hinge) amino acid sequence identified using molecular biology techniques.
Ka (M − 1 · s − 1) (VEGF165 [1]; [8]): 1.03E+07 M − 1 · s − 1 | Kd (s − 1) (VEGF165 [1]; [8]): 6.60E−05 s − 1 | Ka (VEGF165 [1]; [6]): 1.04e+07 M⁻¹ s⁻¹ | Kd (s − 1) (VEGF165 [1]; [6]): 0.000107 s⁻¹ | KA M^−1 (VEGF165 [3]): 1.45e+07 M⁻¹

B4: N085 TVAAPS: N-terminal Fc fusion of K-044-085 dAb (TVAAPS Linker) dAb-Fc; SEQ ID NO:20 & 48, 167 (protein)
chain: DIQMTQSPSSLSASVGDRVTITCRASQWIGPELKWYQQKPGKAPKLLIYHGSILQSGVPSRFSGSGSGTDFTLTISSLQPEDFATYYCQQYMYYPHTFGQGTKVEIKRTVAA[human IgG1 Fc and a few adjoining residues not shown]
modifications: N-terminal Fc fusion of K-044-085 DAB (TVAAPS Linker) dAb-Fc nucleic acid sequence identified using molecular biology techniques.
Ka (M − 1 · s − 1) (VEGF165 [1]; [7]): 8.07E+06 M − 1 · s − 1 | Kd (s − 1) (VEGF165 [1]; [7]): Too tight | Ka (M − 1 · s − 1) (VEGF165 [1]; [9]): 1.16E+07 M − 1 · s − 1 | Kd (s − 1) (VEGF165 [1]; [9]): 9.08E−05 s − 1

B5: C085 Alb DOM2: C-terminal Fc fusion of K-044-085 dAb (Albumin Domain 2); SEQ ID NO:173 (protein)
chain: [human IgG1 Fc not shown]ENDEMPADLPSLAADFVESKDDIQMTQSPSSLSASVGDRVTITCRASQWIGPELKWYQQKPGKAPKLLIYHGSILQSGVPSRFSGSGSGTDFTLTISSLQPEDFATYYCQQYMYYPHTFGQGTKVEIKR
modifications: C-terminal Fc fusion of K-044-085 DAB (Albumin Domain 2) amino acid sequence identified using molecular biology techniques.
Ka (M − 1 · s − 1) (VEGF165 [1]; [7]): 7.52E+06 M − 1 · s − 1 | Kd (s − 1) (VEGF165 [1]; [7]): Too tight

B6: DMS30000: C-terminal Fc fusion of K-044-085 dAb (GS(TVAAPSGS)x3 Linker) Fc-dAb; SEQ ID NO:3 & 31 (protein)
chain: [human IgG1 Fc and a few adjoining residues not shown]GSTVAAPSGSTVAAPSGSTVAAPSGSDIQMTQSPSSLSASVGDRVTITCRASQWIGPELKWYQQKPGKAPKLLIYHGSILQSGVPSRFSGSGSGTDFTLTISSLQPEDFATYYCQQYMYYPHTFGQGTKVEIKR
modifications: C-terminal Fc fusion of K-044-085 DAB (GS(TVAAPSGS)x3 Linker) Fc-dAb nucleic acid sequence identified using molecular biology techniques.
Kd (VEGF165 [1]; [10]): 2 pM | ka (VEGF165 [1]; [10]): 1.44E+07 | kd (VEGF165 [1]; [10]): 3.34E−05 | ka (VEGF165 [1]; [11]): 2.28E+07 | kd (VEGF165 [1]; [11]): 1.60E−05 | Ka (M − 1 · s − 1) (VEGF165 [1]; [7]): 8.96E+06 M − 1 · s − 1 | Kd (s − 1) (VEGF165 [1]; [7]): Too tight | Ka (VEGF165 [1]; [6]): 1.31e+07 M⁻¹ s⁻¹ | Kd (VEGF165 [1]; [6]): 1.74 pM | Kd (s − 1) (VEGF165 [1]; [6]): 2.29e-05 s⁻¹ | binding to VEGF165 pre-saturated with Vh dAb-Fc DMS1576 (VEGF165 [5]): bind VEGF165 | EC50 compared to Bevacizumab (Avastin) [2]: similar | KA M^−1 (VEGF165 [3]): 8e+07 M⁻¹ | ΔH (VEGF165 [3]): -19.5 kcal/mol | ΔS (cal/mol/deg) (VEGF165 [3]): −29.3 cal/mol/deg

Source: US20170029494A1, “Antigen Binding Constructs” (Glaxo Group Limited, priority 2011, published 2017)
